This passage reports Potency results from PubChem BioAssay AID360 (National Center for Advancing Translational Sciences (NCATS), 2006).

SMILES strings stand for the structures. Hit rate of the full screen: of about 48,000 compounds, about 550 (1.1%) were called active. Roughly 4% stayed inconclusive and do not appear here. Rule as the data show it: active = potency below about 15 µM; inconclusive = mostly about 16 µM to 33 µM; inactive = weaker than that. The list shows a part of the results.
Potency is read from the fitted curve at half-maximal effect.

The test has as its target Lysosomal acid glucosylceramidase (Homo sapiens) (UniProt P04062). Nature of the test: Glucocerebrosidase.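 Also: the screen sought inhibitors.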 The following applies: purified enzyme, resorufin glucoside fluorescence (screen aimed at inhibitors), 20 min; series mostly up to 77 µM. The method, boiled down: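 Normal human glucocerebrosidase (0.2 nM final) was assayed with resorufin β-D-glucopyranoside (30 uM final) in 50mM citric acid/KH2PO4, 10mM sodium taurocholate, 0.01% tween-20, pH 5.9. Compounds were titrated; fluorescence (Ex 548, Em 600) read after 20 min at RT.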
Sequence of UniProt P04062 (P04062 whole entry, looked up): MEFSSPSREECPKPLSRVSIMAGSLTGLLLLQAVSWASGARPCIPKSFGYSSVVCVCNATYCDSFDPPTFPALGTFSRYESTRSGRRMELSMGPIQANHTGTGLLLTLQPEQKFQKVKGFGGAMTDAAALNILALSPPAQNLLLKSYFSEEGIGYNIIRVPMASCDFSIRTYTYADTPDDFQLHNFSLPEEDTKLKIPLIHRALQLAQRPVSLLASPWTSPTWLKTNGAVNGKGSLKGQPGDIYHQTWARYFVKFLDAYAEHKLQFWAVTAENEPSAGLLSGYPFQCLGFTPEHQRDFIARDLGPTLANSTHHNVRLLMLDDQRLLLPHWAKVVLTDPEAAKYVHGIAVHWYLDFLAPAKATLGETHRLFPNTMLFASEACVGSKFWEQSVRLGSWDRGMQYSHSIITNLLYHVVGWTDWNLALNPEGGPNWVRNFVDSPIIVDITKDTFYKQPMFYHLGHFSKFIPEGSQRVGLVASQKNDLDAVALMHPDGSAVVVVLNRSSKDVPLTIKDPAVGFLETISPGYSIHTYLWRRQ
On to `CCn1c(CSc2nncn2-c2ccc(OC)cc2)nc2cc(S(=O)(=O)N(C)C)ccc21`, for which the Potency is inactive: > 76.9 µM.

For the molecule `O=C(NCc1ccc(F)cc1)C(c1cccs1)N(C(=O)c1csnn1)C1CC1` (stereo unspecified), the Potency was inactive: > 76.9 µM. Take `Cc1cccc2[nH]c3c(=O)n(CCN4CCNCC4)cnc3c12`: the Potency was inactive: > 76.9 µM.

`CCn1c(Cc2ccccc2)nnc1SCC(=O)Nc1nc2ccccc2s1`: the Potency is inactive: > 76.9 µM. For the molecule `CCSc1ccccc1C(=O)NCc1ccc2c(c1)OCO2`, the Potency was inactive: > 76.9 µM. For the molecule `O=C(CSc1nc2ccccc2o1)N1CCN(c2ccc(Cl)cc2)CC1`, the Potency is inactive: > 76.9 µM. For `Cc1ccc(C)c(S(=O)(=O)NC(CC(C)C)C(=O)O)c1` (stereo unspecified) the value was inactive: > 76.9 µM; for `COC(=O)n1c(SC)nc2ccccc21`, inactive: > 76.9 µM; for `CCCCN(CC)CCNc1c(N2CCN(C(=O)OCC)CC2)c(=O)c1=O`, inactive: > 76.9 µM.

As to `O=C(Nc1nccs1)c1nc(-c2ccccc2)n(-c2ccccc2)n1`, the Potency was inactive: > 76.9 µM. In the case of `COc1ccc(CNC(=O)C(C#N)c2nc3ccccc3nc2N2CCCC2)cc1` (stereo unspecified), the Potency is inactive: > 76.9 µM.

As for `Cc1cccn2c(=O)c3cc(C(=O)N4COCC4(C)C)n(C)c3nc12`, the Potency was inactive: > 76.9 µM. For `Cc1nnc(SCC(=O)N2CCc3ccccc32)n1-c1ccccc1` the value was inactive: > 76.9 µM; for `COc1cccc(C(=O)CN2CCC(NC(=O)NC3CCCCC3)CC2)c1`, inactive: > 76.9 µM. Take `CCOc1ncccc1C(=O)OCc1cn2cc(Cl)ccc2n1`: the Potency is inactive: > 76.9 µM. For the molecule `O=C(NCc1ccco1)c1cccs1`, the Potency was inactive: > 76.9 µM.

`CC(C)c1nc2ccccc2c2nnc(SCC(=O)NCc3ccco3)n12`: the Potency was inactive: > 76.9 µM. As to `Brc1cccc(-c2nnc3n2CCCCC3)c1`, the Potency is inactive: > 76.9 µM. Next, `CCOC(=O)C1CCCN(c2nc3ccccc3nc2C(C#N)C(=O)OCC)C1` (stereo unspecified): inactive: > 76.9 µM; `CC(Sc1nnc(-c2ccc(O)cc2)o1)C(=O)Nc1cccc2ccccc12` (stereo unspecified): inactive: > 76.9 µM; `O=C(CCCCn1c(=S)[nH]c2ccsc2c1=O)NCc1ccco1`: “inactive”. As for `CC(C)CC1NC(=O)N(CC(=O)c2ccc3c(c2)OCCO3)C1=O` (stereo unspecified), the Potency is inactive: > 76.9 µM.

Regarding `O=C(CN1C(=O)C2CC=CCC2C1=O)Nc1ccc(S(=O)(=O)NC2=NCCCCC2)cc1` (stereo unspecified), the Potency is inactive: > 76.9 µM. For `Cc1ccc(C)c(C(=O)CSc2nnnn2-c2cccnc2)c1`, the Potency is inactive: > 76.9 µM. With `COc1cc(C2c3c(oc4ccccc4c3=O)C(=O)N2CCN2CCOCC2)cc(OC)c1OC` (stereo unspecified), the Potency was inactive: > 76.9 µM.

For the molecule `COc1ccc2occ(NC(C)=O)c2c1`, the Potency was inactive: > 76.9 µM.

`CN(C)C(=O)Cn1nc(-c2ccccc2)c2ccccc2c1=O`: the Potency is inactive: > 76.9 µM. Take `COCCn1c(=O)[nH]c2cc(C(=O)NCc3cccnc3)ccc2c1=O`: the Potency is inactive: > 76.9 µM. In the case of `CC(C)c1cc(C(=O)Nc2cc(Cl)ccc2O)no1`, the Potency is inactive: > 76.9 µM. Regarding `COC(=O)Cc1[nH]nc2c1C1(C(=O)N(Cc3ccc(Cl)cc3)c3ccccc31)C(C#N)=C(N)O2` (stereo unspecified), the Potency is inactive: > 76.9 µM.

With `CCCCOC(=O)n1c(=O)oc2cc(S(=O)(=O)N3CCCCC3)ccc21`, the Potency was inactive: > 76.9 µM. In the case of `O=C1CN(C(=O)c2ccccc2F)c2ccccc2N1`, the Potency was inactive: > 76.9 µM. Consider `COc1ccc(CCNC(=O)Cn2cnc3c(nnn3Cc3ccccc3F)c2=O)cc1OC`, for which the Potency was inactive: > 76.9 µM. In the case of `Fc1ccc(-c2nnc(NC3=NCCCCC3)o2)cc1`, the Potency is inactive: > 76.9 µM. For `O=C(O)C1C(c2ccccc2)C(C(=O)OCCCO)C1c1ccccc1` (stereo unspecified), the Potency is inactive: > 76.9 µM. Take `Cc1cc(-n2c(C)cc(C(=O)CSc3nnc4sc5ccccc5n34)c2C)no1`: the Potency is inactive: > 76.9 µM. Take `CCOC(=O)CCCCC(=O)c1[nH]c(=O)[nH]c1CSc1nc(-c2ccccc2)c(C#N)c(=O)[nH]1`: the Potency is inactive: > 76.9 µM.

For the molecule `Cc1cc(C)n(-c2cc(-c3ccccc3)nc(C)n2)n1`, the Potency was inactive: > 76.9 µM. Take `O=C(CCSCCc1ccncc1)NCCCN1CCOCC1`: the Potency is inactive: > 76.9 µM. For `COc1cccc(CNC(=O)CCS(=O)(=O)c2cccc3nonc23)c1` the value was inactive: > 76.9 µM; for `Cc1cccc(N(CC(=O)NC2CCCCC2)C(=O)CCC(=O)Nc2ccccn2)c1`, inactive: > 76.9 µM; for `O=C(O)c1cnn2c1NC(c1ccc(F)cc1)CC2C(F)(F)F` (stereo unspecified), inactive: > 76.9 µM.

For `CC(C)OCCCNC(=O)Cn1nc(-c2ccccc2)ccc1=O`, the Potency is inactive: > 76.9 µM. For the molecule `CCC(CC)C(=O)Nc1cc(C)cc(C)c1`, the Potency is inactive: > 76.9 µM. On to `COc1ccc(NC(=O)C(C)N(c2ccc(C)cc2)S(C)(=O)=O)c(OC)c1` (stereo unspecified), for which the Potency is inactive: > 76.9 µM.

`COc1ccc(NC(=O)CCCn2c(=O)[nH]c3ccccc3c2=O)cc1`: the Potency was inactive: > 76.9 µM. Next, `OCn1ncn(-c2ccccc2)c1=S`: inactive: > 76.9 µM; `COc1ccc(CN2C(=O)NC3(CCCCCC3)C2=O)cc1F`: inactive: > 76.9 µM.

As for `CCN(CC)CCN(Cc1cc2cc3c(cc2[nH]c1=O)OCCO3)C(=O)NC1CCCCC1`, the Potency is inactive: > 76.9 µM. For `Cc1ccc(S(=O)(=O)Cn2cnnn2)cc1` the value was inactive: > 76.9 µM; for `Cc1ccc2nc(Nc3nc(=O)c4ccccc4n3C)nc(C)c2c1`, inactive: > 76.9 µM; for `O=C(CN1CCC(NC(=O)c2ccccc2)CC1)NCc1ccccc1F`, inactive: > 76.9 µM. For the molecule `Cc1n[nH]c(C)c1S(=O)(=O)N1CCCC(C(=O)N2CCc3ccccc32)C1` (stereo unspecified), the Potency is inactive: > 76.9 µM. Regarding `N#C/C(=C1\CCCN1)c1nc(-c2ccccc2)cs1`, the Potency result was “inactive”. For the molecule `CCOC(=O)c1ccc(N2C(=O)C(C)=C(C)C2=O)cc1`, the Potency is inactive: > 76.9 µM. For `O=C(Nc1ccc(Cl)cc1)N(Cc1cccnc1)Cc1ccco1`, the Potency is inactive: > 76.9 µM. Next, `CCOC(=O)c1cc2occc2n1CC(=O)N1CCCc2ccccc21`: inactive: > 76.9 µM; `CCOC(=O)C1=C(N)n2c(s/c(=C\c3cccs3)c2=O)=C(C(=O)OCC)C1c1cccs1` (stereo unspecified): inactive: > 76.9 µM. `CCCOc1ccc(C2/C(=C(\O)c3c(C)[nH]c(C(=O)OC)c3C)C(=O)C(=O)N2CCN(C)C)cc1` (stereo unspecified): the Potency was inactive: > 76.9 µM.

Take `O=C(CCCn1c(=S)[nH]c2cc3c(cc2c1=O)OCO3)N1CCN(c2ccc(Cl)cc2)CC1`: the Potency result is “inactive”. Take `Cc1nc(NCc2ccccn2)c2ccccc2n1`: the Potency was inactive: > 76.9 µM.

Consider `O=C(O)c1c(F)c(F)cc2ccccc12`, for which the Potency is inactive: > 76.9 µM. `O=C(C1CCCO1)N1CCc2ccccc21` (stereo unspecified): the Potency was inactive: > 76.9 µM. On to `COc1ccccc1N1CCN(C(=O)c2ccc(S(=O)(=O)N3CCCC3)cc2)CC1`, for which the Potency was inactive: > 76.9 µM.

For `Cn1c(SCC(=O)NCCN2C(=O)CSC2=O)nc2ccccc2c1=O`, the Potency was inactive: > 76.9 µM. For `CCN(CC)CCOC(=O)c1cccc(OC)c1`, the Potency is inactive: > 76.9 µM. Consider `O=C(COC(=O)c1cccc(S(=O)(=O)N2CCc3ccccc32)c1)NC1CCS(=O)(=O)C1` (stereo unspecified), for which the Potency was inactive: > 76.9 µM. Next, `Clc1cccc(Cl)c1Cn1nnc(-c2cccs2)n1`: inactive: > 76.9 µM; `COc1ccccc1C1C(C(N)=O)=C(C)Nc2ncnn21` (stereo unspecified): inactive: > 76.9 µM. For `CC(=O)c1c(C)nc(C)nc1NC(=O)Cc1ccccc1`, the Potency is inactive: > 76.9 µM.

With `CCn1c(=O)cc(SCC(=O)N2CCC(C)CC2)c2ccccc21`, the Potency is inactive: > 76.9 µM. As to `CC(C)C1Oc2ccccc2N(CC(=O)NCCCN2C(C)CCCC2C)C1=O` (stereo unspecified), the Potency was inactive: > 76.9 µM. Consider `COc1ccc(N2CC(O)=C(c3nc4ccccc4s3)C2=N)cc1`, for which the Potency is inactive: > 76.9 µM. Next, `CCOc1ccc(-n2cc(C(=O)Nc3cccc(C)n3)c3cc(OC)c(OC)cc3c2=O)cc1`: inactive: > 76.9 µM; `COc1cccc(-c2nc(-c3ccc(NC(=O)c4cccnc4)cc3)no2)c1`: inactive: > 76.9 µM. Regarding `CC1(C)CC(=O)C(C2(O)C(=O)N(Cc3ccccc3)c3ccccc32)CO1` (stereo unspecified), the Potency was inactive: > 76.9 µM. Next, `C/C(N)=C(/C#N)C(=O)COC(=O)c1cc(C)n(-c2ccc(F)cc2)c1C`: inactive: > 76.9 µM; `CC1(C)CC(=O)C=C(NCc2ccco2)C1`: inactive: > 76.9 µM.

In the case of `O=C(O)CCc1ccc(-c2ccccc2)n1-c1cccc(O)c1`, the Potency was inactive: > 76.9 µM. Turning to `O=C1OCCC1S(=O)(=O)c1ccc2ccccc2c1` (stereo unspecified), the Potency was inactive: > 76.9 µM. Next, `COC(=O)c1[nH]c2cc(C)ccc2c1NC(=O)CN1CCCc2ccccc21`: inactive: > 76.9 µM; `COc1ccc(S(=O)(=O)N(Cc2ccc(OC)c(OC)c2)Cc2ccco2)cc1`: inactive: > 76.9 µM; `Cc1cc(NC(=O)Nc2cccs2)no1`: inactive: > 76.9 µM. For `CCOC(=O)C1CCN(c2cc(=O)n(C3CCCCC3)c(=O)[nH]2)CC1`, the Potency is inactive: > 76.9 µM.

Take `Cc1ccc2nc3c(cc(C(=O)NCC4CCCO4)n3C)c(=O)n2c1` (stereo unspecified): the Potency is inactive: > 76.9 µM. In the case of `Cc1ccc(-c2nc3ccccc3[nH]2)cc1NC(=O)c1ccco1`, the Potency was inactive: > 76.9 µM. Next, `COc1ccc(OCc2nnc(SCC(=O)NCc3ccco3)o2)cc1`: inactive: > 76.9 µM. Take `CCCCN(C)CCCNC(=O)c1cccc(N2CCCC2=O)c1`: the Potency was inactive: > 76.9 µM. Turning to `Cc1ccc(S(=O)(=O)N2CCN(CCO)CC2)cc1-c1nnc2c3ccccc3c(C)nn12`, the Potency was inactive: > 76.9 µM. For `C#CC(C)(C)NC(=O)c1ccccc1OC` the value was inactive: > 76.9 µM; for `CCOc1ccc(S(=O)(=O)Nc2ccccc2C(=O)Nc2ccccc2N2CCOCC2)cc1`, inactive: > 76.9 µM.
